Values marked as one replicate rest on one cluster of the flow cell; about a third of the high ones do not repeat.
test system: ATP; assay: switch fluorescence ratio, 500 uM ATP over buffer (Cy3 cluster intensity, sum of 5 cycles each) (fold (ratio)); higher = stronger signal-on switching upon ATP binding; sequences stand for … in TCGTCGGCAGCGTCAGATGTGTATAAGAGACAGTTTTTTTTTTTTTTTTTTTTTTTTT…TC; settings: aptamer strand: ATP DNA aptamer (quencher-CACCTGGGGGAGTATTGCGGAGGAAGG + anchor), 100 nM annealed; ATP concentration: 500 uM; one replicate
Procedure, shortened: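 Clusters with intensities outside 100-1000 RFU were excluded. The remaining Cy3-labelled switching-strand clusters on a modified Illumina MiSeq flow-cell had been annealed to 100 nM quencher-labelled ATP aptamer and imaged in selection buffer, then after 15 min with 500 uM ATP at 22 °C, for five cycles separated by NaOH stripping and re-annealing. The fluorescence ratio, averaged per switch-domain sequence, is each cluster's summed target-cycle Cy3 intensity over its summed buffer-cycle Cy3 intensity.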
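Note: ATP exposure 15 min at 22 °C before imaging.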

Sequence | switch fluorescence ratio
CCGTGTTACT | 3.05
CCGTGTTTAG | 1.14
CCGTTATGAG | 1.05
CCGTTCCAGT | 1.03
CCGTTCCGAG | 1.89
CCGTTGACC | 1.12
CCGTTGCCAA | 2.29
CCGTTTAATA | 1.25
CCGTTTCACT | 1.04
CCGTTTTGGT | 0.926
CCTAAAACGA | 1.3
CCTAAACTGA | 1.04
CCTAAAGCTC | 1.29
CCTAACCCTT | 0.974
CCTACACTAG | 1.15
CCTACCACAT | 1.66
CCTACGGCG | 1.24
CCTACGGCTT | 2.2
CCTACGTCCT | 2.36
CCTACTTGAT | 1
CCTAGAAGTG | 1.01
CCTAGAGAAG | 1
CCTAGGCGCT | 1.14
CCTAGGCTAG | 1.13
CCTAGGTGGT | 1.03
CCTAGTAGGT | 1.03

Sequence | switch fluorescence ratio
CCTAGTGAAA | 0.995
CCTATAGACA | 1.05
CCTATAGAGG | 1.01
CCTATCCACC | 1.17
CCTATGAGCC | 1.12
CCTATGCACT | 3.5
CCTATTTAAG | 0.983
CCTCACACTT | 1.15
CCTCCAAGCT | 4.19
CCTCCAGTCG | 1.72
CCTCCATGGA | 1.25
CCTCCCCCCA | 3.07
CCTCCCGAGT | 4.66
CCTCCTCCC | 3.22
CCTCGAAGGG | 1.01
CCTCGAATGG | 1.47
CCTCGGGCCA | 1.73
CCTCGTATAG | 1.42
CCTCGTCGGG | 1.07
CCTCGTCGTA | 0.934
CCTCGTTCAC | 3.04
CCTCTCTATG | 1.28
CCTCTTATAA | 1.78
CCTCTTTTTC | 1.57
CCTGAATCTG | 1.18
CCTGAATGGT | 0.964

Sequence | switch fluorescence ratio
CCTGACAGCT | 1.1
CCTGACCCAG | 1.11
CCTGATGAGC | 1.34
CCTGCTGACA | 1.1
CCTGCTGACG | 1.19
CCTGGAGTT | 1.04
CCTGGATACC | 1.06
CCTGGATAT | 1.01
CCTGGCGAGG | 1.03
CCTGGGAGCG | 1.02
CCTGGGAGGT | 0.996
CCTGGGCAAC | 4.27
CCTGGGTACT | 1.03
CCTGGGTTCT | 1
CCTGGGTTGT | 1.15
CCTGGTAGGG | 1.04
CCTGGTCTTT | 1
CCTGGTTAGC | 1.02
CCTGTACCTA | 1.07
CCTGTACGTT | 1.04
CCTGTACTCC | 3.23
CCTGTCTTTG | 1.04
CCTGTGGCCC | 1.06
CCTGTTCCCC | 1.08
CCTGTTGGAC | 1.02

From the supplement of paper PMC10126150
